{
  "source": "PubChem BioAssay AID686978",
  "about": "(National Center for Advancing Translational Sciences (NCATS), 2013)",
  "note": "The campaign covered roughly 420,000 compounds. About 64,000 (15%) were called active. The shares of active, inactive and inconclusive entries below differ from those in the screen. Calls follow the shape of the dose curve; as a rule, active = well fitted inhibition curve with a large enough effect; inconclusive = small, poorly fitted or top-dose-only effect; inactive = flat fitted curve, though single readings scatter. No potency is given beside an inconclusive call; the fits are too rough. % is scaled to controls: 0 for no effect and ±100 for the full control effect; potency is read from the fitted curve at half-maximal effect; tags tell the direction and shape of the fitted curve.",
  "data": [
    {"assay": "qHTS for Inhibitors of human tyrosyl-DNA phosphodiesterase 1 (TDP1): qHTS in cells in absence of CPT; also: nearly all actives have a fitted effect of over 55% in size", "conditions": "DT40 Tdp1-/- hTDP1 cells, no CPT, ATP luminescence, 48 h; activity change, negative = growth inhibition: at 46.2 µM (top of the series)", "outline": "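Growth of hTDP1-complemented DT40 Tdp1-knockout cells is measured by ATP luminescence after at least 48 hr compound exposure at 37 °C, with DMSO substituting for the 20 nM CPT used in the parallel screen.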", "values": [
      {"smiles": "COc1ccc(Nc2oc(-c3cccs3)nc2C#N)cc1", "Potency": "inactive"},
      {"smiles": "S=c1[nH]c2cc3c(cc2[nH]1)OCCO3", "Potency": "inactive"},
      {"smiles": "CC(OC(=O)c1ccccc1C(=O)N(C)C1CCCCC1)C(=O)NC1(C#N)CCCCC1", "note": "(stereo not given)", "activity change, negative = growth inhibition": "inconclusive: -31.4% [inhibitor]"},
      {"smiles": "CC(=O)c1ccc(N2CCN(C(=O)c3ccc(-c4ccccc4)cc3)CC2)cc1", "Potency": "active: 13 µM"},
      {"smiles": "N#C/C(=C\\c1c(N2CCCCCC2)nc2ccccn2c1=O)C(=O)NCc1ccco1", "Potency": "inconclusive [inhibitor, single point]"},
      {"smiles": "CCOc1cc(Cl)c(S(=O)(=O)NCc2ccccn2)cc1Cl", "Potency": "inconclusive [inhibitor, single point]"},
      {"smiles": "O=C(O)c1ccc(N2CCCS2(=O)=O)cc1", "Potency": "inactive"},
      {"smiles": "O=C(Cn1cncc1-c1ccc([N+](=O)[O-])cc1)Nc1ccccc1F", "Potency": "inactive"},
      {"smiles": "CCOc1ccc(NC(=O)CNS(=O)(=O)c2c(C)cc(C)cc2C)cc1", "Potency": "inconclusive [inhibitor, single point]"},
      {"smiles": "CCOc1ccccc1Nc1cc(C)c2cccc(C)c2n1", "Potency": "inactive"},
      {"smiles": "CCCCCCc1cc2cc(C(=O)NCc3ccccc3)c(=N)oc2cc1O", "Potency": "inconclusive [inhibitor, single point]"},
      {"smiles": "O=C(Oc1ccc(NC2=C(Cl)C(=O)c3ccccc3C2=O)cc1)c1ccc([N+](=O)[O-])cc1", "Potency": "active: 7.31 µM"},
      {"smiles": "CN1CCN(C(=O)CSc2nc(-c3ccncc3)ccc2C#N)CC1", "Potency": "inactive"},
      {"smiles": "CCOC(C)OCC", "Potency": "inactive"},
      {"smiles": "O=C(OCc1cnc(Cl)s1)c1ccccc1Cl", "Potency": "inactive"},
      {"smiles": "C/C(CC(=O)Nc1ccc(Cl)cc1Cl)=N\\NC(N)=S", "Potency": "inactive"},
      {"smiles": "COc1ccc([N+](=O)[O-])cc1C1NN=C(c2ccccc2O)S1", "note": "(stereo not given)", "Potency": "active: 3.26 µM"},
      {"smiles": "CC(C)CN1C(=O)NC(NS(=O)(=O)c2ccc(N)cc2)(C(F)(F)F)C1=O", "note": "(stereo not given)", "Potency": "inactive"},
      {"smiles": "Cn1c(CNC(=O)CNC(=O)Cc2ccc(F)cc2)cc(=O)n(C)c1=O", "Potency": "inactive"},
      {"smiles": "CC(C)(C)NC(=O)C(c1cccs1)N(Cc1cccs1)C(=O)c1ccc(CN2CCOCC2)o1", "note": "(stereo not given)", "Potency": "inactive"},
      {"smiles": "CCCNS(=O)(=O)c1ccc2nc(NC(=O)c3ccc(F)cc3)sc2c1", "Potency": "active: 20.6 µM"},
      {"smiles": "Cc1ccc2nc(N3CCN(c4ccccc4)CC3)c3nnnn3c2c1", "Potency": "inactive"},
      {"smiles": "CCCCC[C@@H]1C=C(C(=O)O)[C@H](c2ccc(F)cc2)N1S(=O)(=O)c1ccc(C)cc1", "Potency": "inactive"},
      {"smiles": "CCc1cccc(-n2c(=O)c3cccnc3n2CC(=O)NCc2ccccc2)c1", "Potency": "inconclusive [inhibitor, single point]"},
      {"smiles": "COc1cc(OC)cc(C(=O)NNC(=S)NC2CC2)c1", "Potency": "inconclusive [inhibitor, single point]"},
      {"smiles": "COc1cc(/C(C)=N\\NC(=O)CSc2nc3ccccc3n2C)ccc1O", "Potency": "inconclusive [inhibitor, single point]"},
      {"smiles": "O=c1c(-c2cc(F)cc(F)c2)nc2cnc(N3CCOCC3)nc2n1Cc1ccc(F)cc1", "Potency": "inactive"},
      {"smiles": "CCc1cccc(NC(=O)c2cn3c4c(ccc(Cl)c4c2=O)OC(C)C3)c1", "note": "(stereo not given)", "Potency": "inconclusive [inhibitor, single point]"},
      {"smiles": "CN1N=C(N)c2cn(C3OC(COP(=O)(O)O)C(O)C3O)c3ncnc1c23", "note": "(stereo not given)", "Potency": "inactive"},
      {"smiles": "COc1ccc(C2NC(=O)NC(C)=C2C(=O)OC2CCCC(C)C2)cc1", "note": "(stereo not given)", "Potency": "inconclusive [inhibitor, single point]"},
      {"smiles": "COc1ccc(C)cc1S(=O)(=O)N(CC(=O)Nc1cccc([N+](=O)[O-])c1)c1cc(C)cc(C)c1", "Potency": "inconclusive [inhibitor, full curve, poor fit]"},
      {"smiles": "C#Cc1ccc([C@H]2C=C(C(=O)OCC=C)O[C@@H](OCCCCO)C2)cc1", "Potency": "inactive"},
      {"smiles": "CSC1=Nc2sc3c(c2C2=NCCN12)CC(C)(C)OC3", "Potency": "inconclusive [inhibitor, single point]"},
      {"smiles": "CC1CCCCN1C(=O)Cn1c(=O)n(-c2ccc(Cl)cc2)c(=O)c2c3c(sc21)CCC3", "note": "(stereo not given)", "Potency": "inconclusive [inhibitor, partial curve]"},
      {"smiles": "O=C(CSc1nc(-c2ccccc2)cs1)NCCN1C(=O)CSC1=O", "Potency": "inactive"},
      {"smiles": "CCc1nc2c(OCc3ccc(C(F)(F)F)cc3)cccn2c1N(C)C(=O)CC(C)C", "Potency": "active: 20.6 µM"},
      {"smiles": "CC(=O)N1CCN(Cc2nc3cc(NC(=O)COc4ccccc4)ccc3n2C)CC1", "Potency": "inactive"},
      {"smiles": "N#Cc1c(N2CCCC(O)C2)nc(N)c2c(N)nc3c(c12)CC(=O)N3C12CC3CC(CC(C3)C1)C2", "note": "(stereo not given)", "Potency": "active: 18.4 µM"},
      {"smiles": "O=C(CSc1oc(-c2ccccc2)nc1S(=O)(=O)c1ccc(F)cc1)NCC1CCCO1", "note": "(stereo not given)", "Potency": "inconclusive [inhibitor, single point]"},
      {"smiles": "COc1cc(/C=C(\\C#N)C(=O)Nc2ccccn2)ccc1O", "Potency": "inactive"},
      {"smiles": "COc1ccc(C(=O)NCCOc2ccccc2Cl)c(OC)c1OC", "Potency": "inconclusive [inhibitor, single point]"},
      {"smiles": "COc1cccc(NC(=O)Cn2c(=O)cc(C)c3c(C)nn(-c4cccc(F)c4)c32)c1", "Potency": "inconclusive [inhibitor, single point]"},
      {"smiles": "O=C1c2ccccc2-c2nnc(-c3ccc(F)cc3)cc21", "Potency": "active: 9.2 µM"},
      {"smiles": "CSc1sc(-c2n[nH]c(=S)n2C)c2c1C=CCC2", "Potency": "inconclusive [inhibitor, single point]"},
      {"smiles": "CCOc1ccc(N2C(=O)CC(Cc3ccccc3OC)C2=O)cc1", "note": "(stereo not given)", "Potency": "inactive"},
      {"smiles": "OCCNCC(O)CN1c2ccccc2Sc2ccccc21", "note": "(stereo not given)", "Potency": "inconclusive [inhibitor, single point]"},
      {"smiles": "Cc1ccnc(NC2(C(F)(F)F)N=C(c3ccccc3)NC2=O)c1", "note": "(stereo not given)", "Potency": "inactive"},
      {"smiles": "COCCN(C(=O)C(C)C)c1nnc(-c2ccc(C(C)(C)C)cc2)s1", "Potency": "active: 20.6 µM"},
      {"smiles": "CC(C)(C)C(=O)N/C(N)=N/c1nc2ccccc2o1", "Potency": "inconclusive [inhibitor, single point]"},
      {"smiles": "CCc1ccc(C#CC2=CC(=O)CC(C)(C)C2)cc1", "Potency": "inconclusive [inhibitor, single point]"},
      {"smiles": "CCN(CC)c1nc2c(-c3cccc(Br)c3)nnn2c2ccccc12", "Potency": "inactive"},
      {"smiles": "CCc1nc2ccc(C(=O)Nc3cccc(NS(C)(=O)=O)c3)cn2c1N(C)CCCc1ccccc1", "Potency": "inconclusive [inhibitor, single point]"},
      {"smiles": "COc1ccc(CNC(=O)c2ccc(NC(=O)N3CC4CCCN4c4ccccc43)cc2)cc1", "note": "(stereo not given)", "Potency": "active: 20.6 µM"},
      {"smiles": "Cc1c(C#N)c(NC(=O)COC(=O)c2cc(Cl)c3c(c2)OCCCO3)n(Cc2ccco2)c1C", "Potency": "inactive"},
      {"smiles": "COc1ccc(NC(=O)CCCCC#Cc2ccccc2)cc1", "Potency": "active: 14.6 µM"},
      {"smiles": "CCOc1cc(/C=N\\NC(=O)c2ccc(NC(=O)C(C)(C)C)cc2)ccc1OC(=O)c1ccc(OC)cc1", "Potency": "inconclusive [inhibitor, single point]"},
      {"smiles": "O=C1c2ccccc2-c2nc3ccccc3nc21", "Potency": "inconclusive [inhibitor, partial curve, poor fit]"},
      {"smiles": "Cc1ccc(-n2ncc(C(=O)NCCc3ccccc3)c2C2CCN(C(=O)OC(C)(C)C)CC2)c(C)c1", "Potency": "inconclusive [inhibitor, single point]"},
      {"smiles": "O=C(/C=C/c1ccc(F)cc1)NC(=S)N1CCN(Cc2ccccc2)CC1", "Potency": "inconclusive [inhibitor, single point]"},
      {"smiles": "COc1ccccc1-c1nn(Cc2ccccc2)cc1C(=O)NCC(c1ccco1)N1CCCC1", "note": "(stereo not given)", "Potency": "inactive"},
      {"smiles": "COc1ccccc1C(=O)N(CCN(C)C)c1nc2cc(C)cc(C)c2s1", "Potency": "active: 25.9 µM"},
      {"smiles": "C[C@H](CO)N1C[C@H](C)[C@@H](CN(C)Cc2ccc3cccnc3c2)OCc2cnnn2CCCC1=O", "Potency": "inactive"},
      {"smiles": "COc1ccc(NC(=O)C2CC23CCN(Cc2cccc4ncccc24)CC3)cc1Cl", "note": "(stereo not given)", "Potency": "inconclusive [inhibitor, single point]"},
      {"smiles": "COC(=O)c1ccc(CN2CCc3ccc(NC(=O)c4ccncc4)cc3C2)cc1", "Potency": "inconclusive [inhibitor, partial curve, poor fit]"},
      {"smiles": "CC(C)(CNC(=O)CCC1CCCC1)CNC(=O)CCC1CCCC1", "Potency": "inconclusive [inhibitor, single point]"},
      {"smiles": "COc1ccc(Nc2c(-c3ccc(C)o3)nc3ccccn23)cc1", "Potency": "inconclusive [inhibitor, single point]"},
      {"smiles": "CCCCN1CN(Cc2ccco2)CNC1=S", "Potency": "inactive"},
      {"smiles": "CC1=NN(C(=O)CSCc2ccccc2)C(O)(c2ccccc2)C1", "note": "(stereo not given)", "Potency": "inactive"},
      {"smiles": "Cc1nc2sc(C#N)c(N)c2c2c1CCCC2", "Potency": "inconclusive [inhibitor, partial curve]"},
      {"smiles": "O=c1cc(CN2CCN(c3cccc(C(F)(F)F)c3)CC2)nc2sccn12", "Potency": "inconclusive [inhibitor, partial curve]"},
      {"smiles": "COc1ccc(Cn2c(=N)c(C(=O)NCC3CCCO3)cc3c(=O)n4ccccc4nc32)cc1", "note": "(stereo not given)", "Potency": "inconclusive [inhibitor, single point]"},
      {"smiles": "CCOC(=O)C1=C(C)NC(C)=C(C(=O)OCC)C1C(=O)OCC(=O)N1CCCCC1CC", "note": "(stereo not given)", "Potency": "inconclusive [inhibitor, single point]"},
      {"smiles": "c1ccc(-c2csc(-c3ccc(-c4csnn4)cc3)n2)cc1", "Potency": "inconclusive [inhibitor, partial curve]"},
      {"smiles": "CCN1CCCc2cc(CN(CCN3CCOCC3)C(=S)Nc3cccc(C)c3)ccc21", "Potency": "inconclusive [inhibitor, single point]"},
      {"smiles": "CN(C)S(=O)(=O)c1ccc(C(=O)N2CCN=C2SCc2ccccc2)cc1", "Potency": "inconclusive [inhibitor, single point]"}
    ]}
  ]
}
